The text below walks through data of publication PMC4336329 (PLoS ONE, 2015).

The whole screen tested about 310,000 compounds, of which about 2,200 (0.71%) showed an effect of 50% or more. The effect is printed as a negative number. Some of the results follow.

For this assay, the target named is human ether-à-go-go-related gene (hERG) potassium channel (human, UniProt Q12809). The assay can be described thus: primary screen, population patch clamp on CHO cells stably expressing hERG.
Sequence of human ether-à-go-go-related gene (hERG) potassium channel (Q12809 whole entry, looked up): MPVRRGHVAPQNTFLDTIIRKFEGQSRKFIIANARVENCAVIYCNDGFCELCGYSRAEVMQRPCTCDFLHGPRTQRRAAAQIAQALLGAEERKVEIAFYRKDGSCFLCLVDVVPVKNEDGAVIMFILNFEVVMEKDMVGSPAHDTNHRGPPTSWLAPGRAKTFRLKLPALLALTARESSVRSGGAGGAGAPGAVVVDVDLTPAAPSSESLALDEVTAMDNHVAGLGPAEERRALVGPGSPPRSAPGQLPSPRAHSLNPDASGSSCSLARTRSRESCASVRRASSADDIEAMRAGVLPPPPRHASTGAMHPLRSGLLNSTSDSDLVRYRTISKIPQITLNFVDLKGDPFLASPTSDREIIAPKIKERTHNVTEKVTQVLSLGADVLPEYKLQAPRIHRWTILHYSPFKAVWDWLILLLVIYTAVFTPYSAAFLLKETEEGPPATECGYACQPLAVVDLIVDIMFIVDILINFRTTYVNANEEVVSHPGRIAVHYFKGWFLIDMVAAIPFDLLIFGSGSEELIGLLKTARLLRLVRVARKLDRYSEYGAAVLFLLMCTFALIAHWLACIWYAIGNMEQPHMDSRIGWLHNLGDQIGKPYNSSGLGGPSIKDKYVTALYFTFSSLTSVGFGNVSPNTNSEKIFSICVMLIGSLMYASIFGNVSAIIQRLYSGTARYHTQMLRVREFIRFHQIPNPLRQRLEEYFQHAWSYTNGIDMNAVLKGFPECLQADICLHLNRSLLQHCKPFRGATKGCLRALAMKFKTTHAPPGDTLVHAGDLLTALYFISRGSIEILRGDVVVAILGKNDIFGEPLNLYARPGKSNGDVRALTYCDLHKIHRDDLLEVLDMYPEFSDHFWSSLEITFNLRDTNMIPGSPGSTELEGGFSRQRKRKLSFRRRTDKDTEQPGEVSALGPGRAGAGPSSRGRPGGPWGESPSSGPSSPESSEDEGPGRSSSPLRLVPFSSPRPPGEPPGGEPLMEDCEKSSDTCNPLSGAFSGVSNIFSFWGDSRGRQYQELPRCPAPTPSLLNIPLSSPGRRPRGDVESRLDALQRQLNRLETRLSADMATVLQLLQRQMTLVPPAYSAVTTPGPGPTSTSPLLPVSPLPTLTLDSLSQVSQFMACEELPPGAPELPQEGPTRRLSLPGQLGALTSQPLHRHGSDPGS
Consider `CCN1CCN(C(C(=O)NC2CCCC2)c2cc3c(cc2[N+](=O)[O-])OCO3)CC1` (stereo not shown), for which the “hERG current change (%, negative = inhibition) at 1uM” value stood at 7.69%.
For `O=C1NCCCCC1NS(=O)(=O)c1cccc2ccccc12` (stereo not shown), the “hERG current change (%, negative = inhibition) at 1uM” value was determined as 12%.
For `O=C1CSCC(=O)N1Cc1ccc(Cl)c(Cl)c1`, the “hERG current change (%, negative = inhibition) at 1uM” value turned out to be 14.3%.
Consider `CC(C)(C)c1ccc(-n2ncc3c2CCCC3NC(=O)CN2CCCC2=O)cc1` (stereo not shown), for which the “hERG current change (%, negative = inhibition) at 1uM” value was 4.64%.
Regarding `CCC(=O)N(CCc1ccccc1C)Cc1cc2ccc(C)cc2[nH]c1=O`, the “hERG current change (%, negative = inhibition) at 1uM” value is recorded as 10.5%.
In the case of `N#Cc1ccc(CSc2nc(N)cc(=O)[nH]2)cc1` it was 6.42%.
In the case of `CC1CCCC(N2CCN(C(=O)c3ccc(F)cc3)CC2)C1` (stereo not shown) it was -25%; in that of `CCN(CC)C1CCN(c2nc3nonc3nc2NCCOC)C1` (stereo not shown), 4.76%.
In the case of `O=C(/C=C/c1cccs1)Nc1ccc(Br)cn1` it was 11.3%; in that of `COc1cc(NC(C)=O)c2ncccc2c1[N+](=O)[O-]`, 6.48%.
`CCOC(=O)c1cc2sccc2n1CC(=O)Nc1ccc(OC)cc1OC`: the “hERG current change (%, negative = inhibition) at 1uM” value is reported as -0.342%.
`Cc1cc(-c2ccc(C(C)C)c(S(=O)(=O)N3CCOc4ccccc43)c2)on1`: the “hERG current change (%, negative = inhibition) at 1uM” value is listed as 18.2%.
In the case of `Cc1ccc(NC(=O)COc2nc(C)cs2)cc1` it was 9.3%; in that of `Cc1ccc(S(=O)(=O)CCC(=O)OCC(=O)Nc2cc(F)ccc2C)cc1`, 15.5%.
In the case of `Cc1oc2ccc(O)c(CN3CCOCC3)c2c1C(C)O` (stereo not shown) it was 0.188%; in that of `O=C(Nc1ccc(Cl)cc1)N1CCSC1=NCc1ccccc1`, 13.6%.
In the case of `O=C(COc1ccccc1-c1ccccc1)NCCN1C(=O)S/C(=C\c2cccnc2)C1=O` it was 5.69%; in that of `Cc1cc(C)c2c(N)c(C(=O)c3ccccc3)oc2n1`, 1.72%.
For the compound `Cn1c(N)c(C(=O)COC(=O)c2cc(C(F)(F)F)nc3ccccc23)c(=O)n(C)c1=O`, the “hERG current change (%, negative = inhibition) at 1uM” value was determined as 3.95%.
In the case of `Cc1ccc(NC(=O)N(CCCN2CCOCC2)Cc2cccnc2)cc1C` it was 5.2%; in that of `C/C(=N\NC(=O)c1ccccc1O)c1cccs1`, 8.69%.
In the case of `CSCCC(NC(=O)c1ccco1)C(=O)Nc1ccncc1` (stereo not shown), the “hERG current change (%, negative = inhibition) at 1uM” value turned out to be 12%.
With `O=C(CSc1ncnc2c1cnn2CCc1ccccc1)Nc1cccc(C(F)(F)F)c1`, the “hERG current change (%, negative = inhibition) at 1uM” value was 6.5%.
Turning to `O=C(CCN1C(=O)/C(=C/c2cccs2)SC1=S)NNC(=O)c1cccc(O)c1`, the “hERG current change (%, negative = inhibition) at 1uM” value is 7.92%.
As to `Cc1ccc(S(=O)(=O)c2nc(-c3cccs3)oc2NCc2cccnc2)cc1`, the “hERG current change (%, negative = inhibition) at 1uM” value is given as -0.465%.
In the case of `Cc1ccc(CNC(=O)CS(=O)(=O)Cc2nc(-c3ccc(C)cc3)oc2C)cc1` it was 12%.
`CCOc1ccc(NS(=O)(=O)c2ccc(C(=O)NCC(c3ccc(OC)cc3)N3CCOCC3)cc2)cc1` (stereo not shown): the “hERG current change (%, negative = inhibition) at 1uM” value was 15%.
In the case of `O=C(O)CN1C(=O)c2ccc(Oc3ccc([N+](=O)[O-])cc3)cc2C1=O` it was 20.4%; in that of `COc1ccc(NC(=O)Cn2nnc(C(=O)Nc3ccccc3C)c2N)cc1`, 15.5%; in that of `CCC(CO)NC(=O)c1ccc(-c2nn(C)c(=O)c3ccccc23)cc1` (stereo not shown), 4.07%.
In the case of `CN(C)c1ccc(CNC2CC(C)(C)NC(C)(C)C2)cc1` it was 10.9%; in that of `Clc1ccc(Oc2ncnc3oc(-c4ccccc4)cc23)cc1`, 6.4%; in that of `O=C(CSc1ncn[nH]1)Nc1ccc(Cl)c(Cl)c1`, 7.36%.
In the case of `CC(C)(C)CC(C)(C)c1ccc(O)c(CN2CCN(CCC#N)CC2)c1` it was 15.8%.
`O=C(CN1C(=O)C2CC=CCC2C1=O)Nc1nnc(SCc2ccc(F)cc2)s1` (stereo not shown): the “hERG current change (%, negative = inhibition) at 1uM” value amounted to 5.08%.
On to `CCOc1ccccc1N1CCN(Cc2cccc(OC)c2OC)CC1`, for which the “hERG current change (%, negative = inhibition) at 1uM” value is -2.34%.
In the case of `CCC(=O)Nc1ccc(NC(=O)c2ccccn2)cn1` it was 12.8%.
Turning to `O=C(Nn1cnnc1)c1ccc(F)cc1`, the “hERG current change (%, negative = inhibition) at 1uM” value amounted to 8.73%.
In the case of `Cc1cc(C(=O)N/N=C/C=C/c2ccc3c(c2)OCO3)n[nH]1`, the “hERG current change (%, negative = inhibition) at 1uM” value is on record as 6.14%.
In the case of `Cc1cc(Cl)cc2c1NC(=O)[C@]21[C@@H]2C(=O)N(Cc3ccccc3)C(=O)[C@@H]2[C@@H]2CCCN21`, the “hERG current change (%, negative = inhibition) at 1uM” value is recorded as 0.242%.
With `O=C(NCCOc1ccccc1F)c1ccccc1SCc1ccc(F)cc1`, the “hERG current change (%, negative = inhibition) at 1uM” value was determined as 4.4%.
In the case of `CCc1c(C)nc(SCC(=O)c2ccc(C)c(C)c2)[nH]c1=O` it was 7.31%; in that of `CCOC(=O)c1c(N)sc(C(=O)N(CC)CC)c1C`, 12.4%; in that of `Cn1c(NNC(=O)c2ccc(C(C)(C)C)cc2)cc(=O)n(C)c1=O`, 5.33%.
Regarding `O=c1oc2ccccc2c(Nc2cccc3ccccc23)c1[N+](=O)[O-]`, the “hERG current change (%, negative = inhibition) at 1uM” value was found to be 12.6%.
Consider `COCCN(C(=O)CCC(=O)Nc1cc(C)on1)C(C(=O)NC1CCCC1)c1ccccc1F` (stereo not shown), for which the “hERG current change (%, negative = inhibition) at 1uM” value worked out at 22.4%.
In the case of `CCCC1(C(=O)OCC)NC(c2ccc(OC)cc2OC)C2C(=O)N(c3ccc4c(c3)OCCO4)C(=O)C21` (stereo not shown) it was 0.29%; in that of `O=S(=O)(c1ccc2nnn(OCc3ccccc3)c2c1)N1CCOCC1`, 8.31%; in that of `CCN1CCc2nc(N)sc2C1`, 7.64%.
Turning to `COc1ccc(/C=C2\SC(=S)N(C(C)C(=O)NC3C=CS(=O)(=O)C3)C2=O)cc1` (stereo not shown), the “hERG current change (%, negative = inhibition) at 1uM” value was 18.6%.
Consider `C=C(C)C(=O)O[C@H]1C/C(C)=C\C(=O)/C=C(\C)[C@H](O)[C@@H]2OC(=O)C(=C)[C@@H]21`, for which the “hERG current change (%, negative = inhibition) at 1uM” value was 13.3%.
In the case of `COC(=O)COc1ccc2cccc(-n3cnnn3)c2c1` it was 12.5%.
For the compound `O=C(C1CCN(C2CC(=O)N(c3cccc(Cl)c3)C2=O)CC1)N1CCCCCC1` (stereo not shown), the “hERG current change (%, negative = inhibition) at 1uM” value is given as 5.78%.
In the case of `COc1ccc(NC(=O)Cn2nnc(-c3ccccc3NC(=O)c3ccco3)n2)cc1` it was -1.08%; in that of `COc1ccc(Cl)cc1Nc1cc(C)nc2ccccc12`, -32.2%; in that of `COc1cc(C=NCC2OCCc3ccccc32)cc(OC)c1` (stereo not shown), 13.1%.
In the case of `CCc1nn(CC(=O)Nc2ccc(Br)c(C)c2)c(=N)s1.Cl` it was -8.04%.
Regarding `CCOC(=O)/C(=C/Nc1ccc(F)cc1)[N+](=O)[O-]`, the “hERG current change (%, negative = inhibition) at 1uM” value is reported as 10%.
In the case of `COc1ccccc1NC(C)C(=O)N/N=C/c1ccccc1OCc1cccc(Br)c1` (stereo not shown) it was 1.83%; in that of `O=S(=O)(Nc1nc2ccccc2s1)c1ccc(Cl)s1`, 10.6%.
Turning to `NC(=O)N/N=C\c1cc(Br)ccc1O`, the “hERG current change (%, negative = inhibition) at 1uM” value is 7.14%.
Turning to `COc1ccc(CNC(=O)CS(=O)(=O)Cc2nc(-c3ccc(OC)cc3)oc2C)cc1`, the “hERG current change (%, negative = inhibition) at 1uM” value is -0.658%.
In the case of `CCOCC(=O)Nc1ccc(Br)c(C)c1` it was 12.8%.
As for `COC(=O)c1c(NC(=S)NC(=O)c2ccco2)sc2c1CCCC2`, the “hERG current change (%, negative = inhibition) at 1uM” value was determined as 11.9%.
Regarding `COc1cc(C2C(C#N)=C(C)NC3=C2C(=O)CC(C)(C)C3)ccc1OCCO` (stereo not shown), the “hERG current change (%, negative = inhibition) at 1uM” value is on record as 10.2%.
For `Cc1cccc(COC(=O)CCCNC(=O)c2ccc(Cl)cc2)c1`, the “hERG current change (%, negative = inhibition) at 1uM” value was found to be 3.7%.
In the case of `COC(=O)c1cc(NC(=O)Nc2cccc(Cl)c2)ccc1Cl` it was 10%; in that of `COc1ccccc1NS(=O)(=O)c1ccc(C)c(C(=O)NCC(c2ccco2)N2CCCCC2)c1` (stereo not shown), -20.1%.
`COc1ccc(C(=O)N(Cc2ccccc2)c2cccc(C)c2)cc1S(=O)(=O)N1CCOCC1`: the “hERG current change (%, negative = inhibition) at 1uM” value is on record as 2.85%.
As for `CN(C)c1cccc2c(S(=O)(=O)NCc3ccc(S(N)(=O)=O)cc3)cccc12`, the “hERG current change (%, negative = inhibition) at 1uM” value is 11.8%.
In the case of `CC1(C)C2CCC1(C)C(OC(=O)c1ccc(O)cc1)C2` (stereo not shown) it was 11.6%.
As to `Cc1cc(C)nc(Nc2ncn[nH]2)n1`, the “hERG current change (%, negative = inhibition) at 1uM” value was -5.07%.
For `COCC(=O)NNC(=O)Cc1ccc(Cl)cc1`, the “hERG current change (%, negative = inhibition) at 1uM” value is on record as 11.9%.
Consider `CCC(CO)NCC#Cc1ccccc1.Cl` (stereo not shown), for which the “hERG current change (%, negative = inhibition) at 1uM” value was 5.73%.
For the compound `COc1ccc(NC(=O)c2cccc3cccnc23)cc1S(N)(=O)=O`, the “hERG current change (%, negative = inhibition) at 1uM” value was 13.6%.
Turning to `O=C(O)c1cc(S(=O)(=O)N2CCCc3ccccc32)ccc1Cl`, the “hERG current change (%, negative = inhibition) at 1uM” value is on record as 15.4%.
On to `CC(C)C(=O)N(Cc1cc(=O)[nH]c2ccccc12)c1ccccc1`, for which the “hERG current change (%, negative = inhibition) at 1uM” value was determined as 13.9%.
In the case of `Cc1ccc(N2CC(C(=O)NCC3CCCO3)CC2=O)cc1Cl` (stereo not shown) it was 3.74%; in that of `N#CCC(=O)N/N=C/c1coc2ccccc2c1=O`, 9.41%.
In the case of `CCOC(=O)c1ccc2c(c1)nc(SCC(=O)NC(C)C)n2CC` it was 10.9%.
Turning to `O=C1NC2(CCC3(CC2)OCCO3)NN1c1ccccc1`, the “hERG current change (%, negative = inhibition) at 1uM” value is -29%.
In the case of `CCNC(=S)NNC(=O)Cc1ccccc1` it was 17.9%.
For the compound `Cc1ccc(OC(=O)c2cc(C)nn2C(C)(C)C)cc1`, the “hERG current change (%, negative = inhibition) at 1uM” value is listed as 15.4%.
As to `O=C(NCc1ccc(F)cc1)C(=O)NCC(c1ccco1)N1CCOCC1` (stereo not shown), the “hERG current change (%, negative = inhibition) at 1uM” value is recorded as 9.09%.
On to `CCc1cc(CNC(=O)c2cccc(OC3CCN(S(C)(=O)=O)CC3)c2)on1`, for which the “hERG current change (%, negative = inhibition) at 1uM” value is -18.3%.
Take `COc1nc(-c2ccncc2)nc2ccccc12`: the “hERG current change (%, negative = inhibition) at 1uM” value turned out to be 10.5%.
In the case of `Cc1cccc(-c2nc(NCCCN(C)C)c3ccccc3n2)c1.Cl` it was 12.6%; in that of `Cc1ccc(CNC(=O)C2CCC(=O)N(CCc3ccc(Cl)cc3)C2)cc1` (stereo not shown), -6.96%.
In the case of `COc1ccc(C(=O)NNC(=S)NC(=O)c2ccc(Cl)cc2)cc1` it was 15.4%; in that of `O=C(Nc1ccc(F)cc1)Nc1sccc1-c1nc2ccccc2s1`, 8.46%.
Consider `O=C(NCC1CCC(C(=O)O)CC1)c1cccnc1` (stereo not shown), for which the “hERG current change (%, negative = inhibition) at 1uM” value was found to be 19.8%.
